The other results are listed elsewhere or left out. At the low end of the ranking the order means little. The protein was read in a cell extract, so binding may be indirect.
Target: T1, HNF4alpha8 (COS-7 nuclear extract) (UniProt P41235-5)
T1 sequence: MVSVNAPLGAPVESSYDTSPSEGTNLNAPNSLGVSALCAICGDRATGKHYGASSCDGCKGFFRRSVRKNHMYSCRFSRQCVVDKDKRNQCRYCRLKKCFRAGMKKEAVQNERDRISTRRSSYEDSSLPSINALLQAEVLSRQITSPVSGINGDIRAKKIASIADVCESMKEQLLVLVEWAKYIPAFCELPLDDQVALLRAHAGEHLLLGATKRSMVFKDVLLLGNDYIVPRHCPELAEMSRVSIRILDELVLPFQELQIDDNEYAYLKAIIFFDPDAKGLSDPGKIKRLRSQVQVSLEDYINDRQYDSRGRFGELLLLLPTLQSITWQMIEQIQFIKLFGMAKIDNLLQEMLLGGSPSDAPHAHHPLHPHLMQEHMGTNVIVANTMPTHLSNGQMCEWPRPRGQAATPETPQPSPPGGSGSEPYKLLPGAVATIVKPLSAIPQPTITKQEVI
Experiment: protein-binding microarray
Settings: COS-7 nuclear extract on double-stranded Agilent 4x180k PBM; binding buffer, salt, pH and temperature not given; high values mean tight binding; double strand, one strand shown; sequences stand for … in …GCCTAGGGAGATTAGAGTATCGGTCGA

Sequence	binding signal (log2 normalized intensity)
TGGGAAGCTGGCACAGCAGATGCTGGGCAA	-1.32
AAGAACATTCCAGCTTTGAAGTGCTTCCTG	-1.32
GAGGAGCGCATCGGGCGCCAGCGCCCCCGT	0.802
TCTGGGTGGGGGTGGAGGCAGCAGCTCCAA	-1.33
TTTGGCCTGCTGAGCCCAATCTAGCAAAAA	-1.33
GTGGCTCACAAATGGAGTTTGGTTTAAAGT	1.68
GGGATAGGCAGGAGTTAACTAACAAAAGCA	-1.21
TGACCTTTGCATTCTTACCCAAGCCCCAAA	4.12
CCCCTTGATGCATCAGACCCCTGAGTTTCG	3.21
TGACAGTCCAAGGACTCAATGATACCATCA	-1.31
GACTTTGAACTTCATGTGTGGTGCAGATTC	2.1
ACAAATGAGGGGACAAAGTTCGTGGAAAGT	3.45
TCATTCATCCAAGGACTTTGTAATCATATT	2.92
AAGGCCGGAGGGCGGGGCGGGGCAGCAGGG	-1.28
GTTCACCTTTCCCTTCTTCTCCTCCCAACA	2.62
CTTATTATCTTCAATGATAAGGAATGAGGA	0.71
ACCTCTGCTCCCAAAGCAAACCTCCCCAGC	3.78
CACAGAAATCCAAAGGTCAACAGCCAGCCT	4.24
ACAGGTTTCTGTCCTGGTCACAGTAACAGG	0.552
ATAGATAAGAAAGGCTACAAAGGTGACTTG	0.716
CCGGCAAGTCTGAAATCTACAGGACAGCCA	-1.26
AGGTGGTTCTTTCTGAGTTGCATGAATTTA	1.04
TGTTCTCTTGGCCAACAACTAGGGCAAAGG	3.55
AACTGTGGACTCGCTGCCTTTTATCCCTTT	1.61

Sequence	binding signal (log2 normalized intensity)
TATACAAGAAAGAAAGAATGTTTGCTTCTG	-1.28
CAGCTGTTATCTCTTTTGTGATAGAATGAA	1.89
TGCAGTTTCCCTATTCTCAGTGATATAAAA	0.942
AAGAGGCTCTAGATCTCAAAGTCCAAATAG	5.17
CATATCACAGGAGAAAACAGCACAAGCAAT	-1.25
GACTCTTGGGCAGTCTAAAGTCTGATCCCA	2.65
GGATGGGGACAAAGGTCAAGAAAGCTTTTG	6.2
TTAAAGAATTTTTCCCCTAGTTACAACTGT	1.49
TCTAGGAACCTTTCTCCATACCTCTTGCGT	-0.849
ATCAGCAAACACAGATAGCATAATCAAAGA	-1.33
GGATGAAGGCTGCTGCCTGAAAGGCCAAGC	-1.25
GAATATTTATCAGATACAGGAGATCAGATG	-0.118
CGCCTTCATTCCTAGCCCCACCAAACTGAC	3.88
ACCTTTGGTCTTTGGTGAAACTCCACTACA	0.804
AGGTAGAGTCTAAGGCTAAAACATCCTGGG	-1.24
ATTGATGGTTTTATCAGCTGAGGCCATTGC	0.889
AAAACTTGGACTCTATAGCCTATGCTTTGT	1.96
GCAGTGAGGGTGGGTTCAAAGGTCAGAAAA	8.97
GCCTTATTATCTGCTTTTATGACCTTTGAC	8.05
TGACTTGGGTGCACCAATGATCAAAGAGAC	0.159
TTTTCGAATGGACAGGATGTTCTACACTGC	-0.47
AGCAAAGGTTGGCTAAAGATAACCTAGAAA	-1.4
GAGCTACCGCCTGAACCTTGGATCTCCTGC	2.94
GTTTTGAAAGACCTTTTCCCTCCCTCCCAG	3.76

Sequence	binding signal (log2 normalized intensity)
CCCCGTTCCCGGCAGCCCGCGCGTGGCCCA	2.04
CCAGCTCCTCTTCACACCATGCTCTAGTCT	-0.491
GCCAGATGGCCACCCTTCAGCAAATAGTGG	-1.4
AGTGTGCAAATGTGTCTTTTTTAGTCAGCA	1.41
ACCCAAATATGGTCCCTGACCTTAAGGAGT	2.69
TGATGAGTCCAAGTTCCACATCAAGCACAT	1.35
TTATGTTCACCTCAGCACTGAGATAAAAAT	-0.239
ATTGCAAGGATTCCAAATTTAGTGAGTGGT	0.389
CATCTGCTCACATACCACTGACTAAAGCAA	-1.3
ACTTATCAGGGTTATTTGCTAAAACTGGGC	0.724
CCCAGCAGGCAGACTGGCTCCGCTGCTGCA	-1.33
TTAAAGGGCAGAAGAAGGGATTTAGATTAG	-1.34
AGAGGAAGATCTTTTTGATGACTTTGTAGG	0.915
AATGTAGCCGGCTCAAAATAGGCAAGACTG	-1.3
AATCTTTCAGGAATCTCAGGAGTGATGCCA	-1.31
ATTGCCATCTGCAAGAGAGAATAGATAGTG	-1.22
TGCGGTAGGCATTGAGGCAGCCAGCGCAGG	-1.31
TCAAAGACTCAGATGAGTTTCTTCACTGAC	-1.07
GAAATGGATTTTTTGGGTAAAGTCCAGGCA	3.03
GGAGTAGGCTTTAGATAAGGTATGTGGGAG	-0.393
ATCCTCAAGAAACACAGAACTATCAAACAT	-1.32
ACATAAATGTGCCCAGATAAGAACTGCAAG	-1.43
AGATAAGGAGGAGACAGACTTATCGGGTAG	-1.27
ACTTTCTTGTTTACTCACCTGATTCAATGT	1.43
